Measurements as given in patent publication US20170304437A1 (ALLIGATOR BIOSCIENCE, published 2017).

Columns and labels:
[1] = target: T1, CD40-Fc (R&D #1493-CD) (human, UniProt P25942 fragment); assay: Biacore SPR, immobilised CD40-Fc (protocol of Example 7)
T1 construct: Bought reagent immobilised on the Biacore chip; also called human CD40; not shown: Fc part of the bought fusion
Method: (§1) CD40-Fc (R&D #1493-CD) was immobilized to the BIAcore sensorship, CMS, using conventional amine coupling. 0.5 uM Bispecific construct (957/530) was injected over immobilized CD40 for 3 minutes and the dissociation was followed for 3 minutes. 2.17 uM CTLA4-Fc (Orencia, Bristol-Mayers Squibb) was injected over the CD40-Bispecific complex for 3 minutes and the dissociation phase was followed for 3 minutes. The chip was finally regenerated using 10 mM Glycine, pH 1.7. A Biacore 3000 instrument was used according to the manufacturer's protocols.
(§2) The six different exemplary bispecific polypeptides from Example 13 were tested for their ability to bind to both CD40 and CTLA-4. This was assessed by Surface Plasmon Resonance using the same protocol as in Example 7 above.

[2] = target: T2, CTLA4-Fc (Orencia, Bristol-Mayers Squibb) (human, UniProt P16410 38-152); assay: Biacore SPR, CTLA4-Fc injected over bispecific held on immobilised CD40-Fc (protocol of Example 7)
T2 construct: Commercial drug Orencia; Biotinylated in the dual ELISA; also called soluble CTLA-4; human CTLA-4; not shown: Fc part of Orencia
Method: as §1, §2

[3] = target: T3, CD40-Fc (Ancell # 504-820) (human, UniProt P25942 fragment); assay: binding ELISA on coated CD40-Fc (protocol of Example 7), sample titrated, anti-human IgG Fc-HRP
T3 construct: Bought reagent; also called human CD40; not shown: Fc part of the bought fusion

[4] = target: T4, human CTLA4-Fc (Fitzgerald #30R-CD152) (human, UniProt P16410 38-152); assay: binding ELISA on coated CTLA4-Fc (protocol of Example 7), sample titrated, anti-human IgG Fc-HRP
T4 construct: Bought reagent; also called biotinylated-CTLA4; human CTLA-4 (Fitzgerald); not shown: Fc part of the bought fusion

[5] = target: T3, CD40-Fc (Ancell # 504-820); assay: binding ELISA on coated CD40-Fc (protocol of Example 7), sample titrated, anti-human IgG Fc-HRP; remark: listed apart in the source
[6] = target: T4, human CTLA4-Fc (Fitzgerald #30R-CD152); assay: binding ELISA on coated CTLA4-Fc (protocol of Example 7), sample titrated, anti-human IgG Fc-HRP; remark: listed apart in the source
[7] = target: T3, CD40-Fc (Ancell # 504-820); assay: binding ELISA on coated CD40-Fc (protocol of Example 7), sample titrated, anti-human IgG Fc-HRP; remark: listed apart in the source
[8] = target: T4, human CTLA4-Fc (Fitzgerald #30R-CD152); assay: binding ELISA on coated CTLA4-Fc (protocol of Example 7), sample titrated, anti-human IgG Fc-HRP; remark: listed apart in the source
[9] = target: T4, human CTLA4-Fc (Fitzgerald #30R-CD152); assay: as above; remark: listed apart in the source

T3 sequence (P25942 21-193 limits assumed): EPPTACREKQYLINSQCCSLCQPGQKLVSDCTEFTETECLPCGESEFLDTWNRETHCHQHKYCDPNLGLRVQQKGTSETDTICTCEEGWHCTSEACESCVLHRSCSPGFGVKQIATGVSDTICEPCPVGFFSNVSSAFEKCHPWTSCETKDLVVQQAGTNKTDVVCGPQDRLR
T4 sequence (P16410 38-152 limits assumed): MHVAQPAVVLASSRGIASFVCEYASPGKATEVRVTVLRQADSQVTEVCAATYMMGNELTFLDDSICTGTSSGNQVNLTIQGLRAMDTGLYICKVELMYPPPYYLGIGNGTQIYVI

Binder	Kd [1] [nM]	koff [1] [s⁻¹]	kon [1] [M⁻¹ s⁻¹]	Kd [2] [nM]	koff [2] [s⁻¹]	kon [2] [M⁻¹ s⁻¹]	EC50 (read off the curve) [3] [nM]	EC50 (read off the curve) [4] [µg/mL]	EC50 (read off the curve) [5] [nM]	EC50 (read off the curve) [6] [µg/mL]	EC50 (read off the curve) [7] [nM]	EC50 (read off the curve) [8] [µg/mL]	EC50 (read off the curve) [9] [µg/mL]
Bispecific polypeptide 1132/1139 (bispecific antibody, human IgG1, kappa) light: DIQMTQSPSSLSASVGDRVTITCRASQSISSYLNWYQQKPGKAPKLLIYAASSLQSGVPSRFSGSGSGTDFTLTISSLQPEDFATYYCQQYGRNPPTFGQGTKLEIKRTVAAPSVFIFPPSDEQLKSGTASVVCLLNNFYPREAKVQWKVDNALQSGNSQESVTEQDSKDSTYSLSSTLTLSKADYEKHKVYACEVTHQGLSSPVTKSFNRGECSGGGGSGGGGSAPLKIQAYFNETADLPCQFANSQNLSLSELVVFWQDQENLVLNEVYLGKERFDSVDSKYMGRTSFDSDSWTLRLHNLQIKDKGRYQCIIHHKKPTGMINIHQMNSELSVLA heavy: EVQLLESGGGLVQPGGSLRLSCAASGFTFSSYAMSWVRQAPGKGLEWVSGIGSYGGGTYYADSVKGRFTISRDNSKNTLYLQMNSLRAEDTAVYYCARYVNFGMDYWGQGTLVTVSS[human IgG1 constant region not shown]	6.2	0.00844	1.36e+06	2.92	0.00311	1.06e+06	~3	~0.02					
Bispecific polypeptide 1107/1145 (bispecific antibody, human IgG1, kappa, Anti-CD40 IgG1 with CD86 mutant 1040 at the C terminus of the light chain) light: DIQMTQSPSSLSASVGDRVTITCRASQSISSYLNWYQQKPGKAPKLLIYAASSLQSGVPSRFSGSGSGTDFTLTISSLQPEDFATYYCQQYGVYPFTFGQGTKLEIKRTVAAPSVFIFPPSDEQLKSGTASVVCLLNNFYPREAKVQWKVDNALQSGNSQESVTEQDSKDSTYSLSSTLTLSKADYEKHKVYACEVTHQGLSSPVTKSFNRGECSGGGGSGGGGSAPLKIQAYFNETADLPCQFANSQNLSLSELVVFWQDQENLVLNEVYLGKERFDSVDSKYMGRTSFDSDSWTLRLHNLQIKDKGRYQCIIHHKKPTGMINIHQMNSELSVLA heavy: [about 100 residues not shown]RVWGFDYWGQGTLVTVSS[human IgG1 constant region not shown]		0.00117	347000	3.05	0.0031	1.02e+06			~0.6	~0.02			
Bispecific polypeptide 1150/1152 (bispecific antibody, human IgG1, kappa) light: DIQMTQSPSSLSASVGDHVTITCRASQSISSYLNWYQQKPGKAPKLLIYAASSLQSGVPSRFSGSGSGTDFTLTISSLQPEDFATYYCQQYGSAPPTFGQGTKLEIKRTVAAPSVFIFPPSDEQLKSGTASVVCLLNNFYPREAKVQWKVDNALQSGNSQESVTEQDSKDSTYSLSSTLTLSKADYEKHKVYACEVTHQGLSSPVTKSFNRGECSGGGGSGGGGSAPLKIQAYFNETADLPCQFANSQNLSLSELVVFWQDQENLVLNEVYLGKERFDSVDSKYMGRTSFDSDSWTLRLHNLQIKDKGRYQCIIHHKKPTGMINIHQMNSELSVLA heavy: EVQLLESGGGLVQPGGSLRLSCAASGFTFSSYAMSWVRQAPGKGLEWVSGIGGSSSYTSYADSVKGRFTISRDNSKNTLYLQMNSLRAEDTAVYYCARYYSYHMDYWGQGTLVTVSS[human IgG1 constant region not shown]	2.54	0.00326	1.28e+06	4.07	0.00312	765000					~0.3	~0.05	
Bispecific polypeptide 1136/1143 (bispecific antibody, human IgG1, kappa) light: DIQMTQSPSSLSASVGDRVTITCRASQSISSYLNWYQQKPGKAPKLLIYAASSLQSGVPSRFSGSGSGTDFTLTISSLQPEDFATYYCQQAYYAGLFTFGQGTKLEIKRTVAAPSVFIFPPSDEQLKSGTASVVCLLNNFYPREAKVQWKVDNALQSGNSQESVTEQDSKDSTYSLSSTLTLSKADYEKHKVYACEVTHQGLSSPVTKSFNRGECSGGGGSGGGGSAPLKIQAYFNETADLPCQFANSQNLSLSELVVFWQDQENLVLNEVYLGKERFDSVDSKYMGRTSFDSDSWTLRLHNLQIKDKGRYQCIIHHKKPTGMINIHQMNSELSVLA heavy: [about 100 residues not shown]YVFGIDYWGQGTLVTVSS[human IgG1 constant region not shown]	38.9	0.00563	145000										~0.02

Where two headings read alike, the source gives them in different places.
